Laboratory results reported in the supplement of paper PMC4723716.
± gives the uncertainty stated by the source. In all, about 9,900 compounds were measured (“viability index relative to DMSO control”: median about 1, lowest 2% from about 0.85 on). The list shows a part of the results.

Test system: Plasmodium falciparum NF54 stage V gametocytes
Experiment: viability index relative to DMSO control (fraction); higher = less gametocyte killing
Settings: 2.5 µM, incubation time: 72 h
Method in brief: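 Gametocytes (P. falciparum NF54, stage V) were treated with compound at 2.5 µM for 72 hr at 37°C in low oxygen, in serum-free medium at 0.75% gametocytemia and 1.25% hematocrit. Counts of 20–70 µm2 red particles, taken from one field per well after MitoTracker Red CMXRos with saponin, were divided by the plate mean of solvent-only wells. This ratio is the viability index.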

[1] = library set: Broad Institute DOS

SMILES	viability index [1]	viability index (library set: Broad Institute Blood Stage)
CCCC(=O)Nc1ccc2c(c1)OC[C@H](C)NC[C@@H](C)[C@H](OC)CN(C)C2=O	1.03 ± 0.015	–
CCC(=O)Nc1ccc2c(c1)C(=O)N(C)C[C@@H](OC)[C@@H](C)CN(Cc1nccs1)[C@@H](C)CO2	1.09 ± 0.052	–
COc1ccccc1-c1ccc([C@H]2[C@@H]3CN(C(=O)c4ccncc4)C[C@H]2N3)cc1	1.06 ± 0.064	–
CC(C)NC(=O)N[C@H]1CC[C@H](CC(=O)NCCCN(C)C)O[C@@H]1CO	0.951 ± 0.1	–
O=C(CN1CCOCC1)N1CCCCN2[C@H](CO)[C@@H](c3ccc(Br)cc3)[C@H]2C1	1.008 ± 0.0032	–
CN1C(=O)c2cc(NS(C)(=O)=O)ccc2OC[C@@H]2O[C@@H](CC(=O)NCc3ccccc3)CC[C@H]21	1.13 ± 0.11	–
CN1C(=O)c2cc(NC(=O)Nc3cccc(C#N)c3)ccc2OC[C@H]2O[C@@H](CC(=O)Nc3ccc4c(c3)CCC4)CC[C@@H]21	1.04 ± 0.081	–
O=C(C[C@H]1C=C[C@H](NC(=O)Nc2ccccc2F)[C@H](CO)O1)NCc1ccc(-c2ccccc2)cc1	1.06 ± 0.066	–
O=C(Cc1ccccn1)N[C@@H]1CC[C@H](CCNS(=O)(=O)c2cccc(F)c2)O[C@@H]1CO	1.02 ± 0.015	–
O=C(c1cccc(F)c1)N1CC(=O)N2[C@H](C1)[C@@H](c1ccc(-c3cccnc3)cc1)[C@@H]2CO	–	0.817 ± 0.042
O=C(C1CCC1)N1CC(=O)N2[C@H](CO)[C@H](c3ccc(Br)cc3)[C@H]2C1	1.04 ± 0.012	–
C/C=C/c1ccc([C@H]2[C@H]3CNC[C@@H]2N3S(=O)(=O)c2c(C)noc2C)cc1	0.956 ± 0.02	–
O=C(C[C@H]1C[C@H]2c3cc(NC(=O)c4ccc5c(c4)OCO5)ccc3O[C@H]2[C@H](CO)O1)NCCN1CCCCC1	1.05 ± 0.031	–
CO[C@H](CN(C)C(=O)C1CCOCC1)[C@@H](C)CN(C(=O)Nc1ccc(C(F)(F)F)cc1)[C@@H](C)CO	1.01 ± 0.056	–
O=C(Nc1cccc(Cl)c1)N[C@@H]1CC[C@@H](CCn2cc(Cc3ccccc3)nn2)O[C@H]1CO	1.13 ± 0.06	–
CCS(=O)(=O)N1C[C@@]2(C1)CN(C)[C@@H](CO)c1c2c2ccc(OC)cc2n1C	1.09 ± 0.099	–
O=C(c1cccnc1)N1CC2(C1)[C@@H](c1ccccc1)[C@@H](CO)N2C(=O)CC1CC1	1.1 ± 0.013	–
CC(C)C#Cc1ccc([C@@H]2[C@H]3CN(C(=O)c4ccc5c(c4)OCO5)CC(=O)N3[C@H]2CO)cc1	1.18 ± 0.046	–
C/C=C/c1cnc2c(c1)C(=O)N([C@@H](C)CO)C[C@@H](C)[C@@H](CN(C)CC1CCOCC1)O2	1.06 ± 0.042	–
CCCNC(=O)N1C[C@@H](O)COC[C@H]2O[C@H](CC(=O)OC)CC[C@@H]21	1.01 ± 0.076	–
CCS(=O)(=O)Nc1ccc2c(c1)C(=O)N(C)C[C@@H](OC)[C@@H](C)CN(C(=O)c1ccc3c(c1)OCO3)[C@H](C)CO2	1.13 ± 0.031	–
C[C@@H]1C(=O)N[C@H](c2ccc3c(c2)OCO3)C/C=C/C[C@H](C)Oc2ccccc2C(=O)N1C.C[C@@H]1C(=O)N[C@H](c2ccc3c(c2)OCO3)C/C=C\C[C@H](C)Oc2ccccc2C(=O)N1C	1.05 ± 0.03	–
CO[C@H](CN(C)Cc1ccc2c(c1)OCO2)[C@@H](C)CN(C(=O)Nc1ccc(F)cc1)[C@@H](C)CO	1.043 ± 0.0038	–

SMILES	viability index [1]	viability index (library set: Broad Institute Blood Stage)
O=C(C[C@H]1CC[C@H]2[C@@H](COC[C@@H](O)CN2S(=O)(=O)c2cccc(F)c2)O1)NCc1ccncn1	1.01 ± 0.025	–
O=C(Nc1ccccc1F)N1CCCCN2[C@H](CO)[C@@H](c3ccc(/C=C/c4ccccc4)cc3)[C@@H]2C1	0.961 ± 0.019	–
CN1c2ccc(C3=CCCCC3)cc2[C@@H]2[C@@H](CCN2C(=O)Cc2ccccn2)[C@H]1CO	1 ± 0.12	–
COc1ccc(-c2ccc3c(c2)[C@H]2[C@H](CCN2C(=O)c2cccc(F)c2)[C@@H](CO)N3)cc1	0.942 ± 0.075	–
COc1ccccc1S(=O)(=O)N(C)C[C@@H]1OCc2ccccc2-c2ccccc2C(=O)N([C@H](C)CO)C[C@H]1C	0.9925 ± 0.0063	–
C[C@@H]1CCCCO[C@H](CN(C)Cc2ccc3c(c2)OCO3)[C@@H](C)CN([C@@H](C)CO)C(=O)c2cc(NS(=O)(=O)c3cn(C)cn3)ccc2O1	1.09 ± 0.032	–
CC(C)CC#Cc1ccc([C@@H]2[C@@H](CO)N3C(=O)CN(C(=O)Nc4cc(F)ccc4F)C[C@H]23)cc1	1.1 ± 0.048	–
CO[C@H]1CC[C@H]2CCOc3c(C#N)cccc3C(=O)N(C)CC3(CCCCC3)CC(=O)N(C)C[C@H]1O2	1.02 ± 0.035	–
CO[C@@H](CN(C)S(=O)(=O)c1ccc(C)cc1)[C@H](C)CN([C@H](C)CO)S(=O)(=O)c1cccc(Cl)c1	1.01 ± 0.035	–
C/C=C/c1ccccc1[C@@H]1[C@@H](C#N)N(C(=O)c2cccnc2)[C@@H]1CO	1.09 ± 0.013	–
O=C(C[C@H]1C[C@@H]2c3cc(NS(=O)(=O)c4ccc(F)cc4)ccc3O[C@@H]2[C@H](CO)O1)NCc1cccnc1	1.06 ± 0.033	–
C[C@H](CO)N1C[C@H](C)[C@@H](CN(C)S(=O)(=O)c2cn(C)cn2)Oc2ccc(NC(=O)C3CC3)cc2CC1=O	0.865 ± 0.1	–
N#C[C@H]1[C@@H](c2ccc(/C=C/c3ccccc3)cc2)[C@@H](CO)N1C(=O)Cc1ccccn1	1.06 ± 0.1	–
CO[C@@H]1CN(C)C(=O)c2cc(NC(=O)c3cccc(F)c3)ccc2OC[C@H](C)N(C)C[C@@H]1C	0.946 ± 0.077	–
CN1CCN(C(=O)[C@@H]2[C@@H](CO)[C@@H]3Cn4c(ccc(-c5ccncc5)c4=O)[C@@H]3N2CC2CC2)CC1	1.03 ± 0.043	–
O=C(Nc1ccccc1F)N1CC(=O)N2[C@H](CO)[C@H](c3ccc(-c4cccnc4)cc3)[C@@H]2C1	0.977 ± 0.017	–
CC(C)NC(=O)N[C@@H]1CC[C@H](CC(=O)NCCCN(C)C)O[C@@H]1CO	0.896 ± 0.11	–
O=C(C[C@@H]1C[C@H]2c3cc(NC(=O)C4CCOCC4)ccc3O[C@H]2[C@H](CO)O1)NCCN1CCCCC1	0.998 ± 0.084	–
O=C(c1cccc(F)c1)N1CC2(C1)[C@H](c1ccccc1)[C@@H](CO)N2Cc1ccccn1	1.13 ± 0.11	–
O=C1CNC[C@@H]2[C@H](c3ccc(-c4ccccc4F)cc3)[C@@H](CO)N12	0.998 ± 0.032	–
C/C=C/c1ccc([C@@H]2[C@@H](CO)N3C(=O)CN(Cc4ccc(F)cc4)C[C@H]23)cc1	1.07 ± 0.074	–
CN1CCCCN2[C@H](CO)[C@H](c3ccc(-c4ccc(F)cc4)cc3)[C@@H]2C1	1.08 ± 0.021	–
O=C(CC(F)(F)F)N1C[C@@H]2[C@H](c3ccccc31)[C@H](CO)N2CC1CCOCC1	0.999 ± 0.076	–
